Measured values from patent US20240400670A1 (JIANGSU HENGRUI PHARMACEUTICALS, published 2024).
Numbering of substitutions follows the chain as printed.

T1: human IL-23 (Sino Biological, CT048-H08H) (human, UniProt Q9NPF7 20-189; P29460 23-328)
T1 construct: also called human IL-23 protein; Human IL-23 p19
T1 sequence (looked up) 1: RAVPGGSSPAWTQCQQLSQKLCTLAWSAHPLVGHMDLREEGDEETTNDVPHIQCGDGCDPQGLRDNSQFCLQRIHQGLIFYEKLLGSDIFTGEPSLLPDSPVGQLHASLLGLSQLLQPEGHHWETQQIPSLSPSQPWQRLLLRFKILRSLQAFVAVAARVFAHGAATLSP
T1 sequence (looked up) 2: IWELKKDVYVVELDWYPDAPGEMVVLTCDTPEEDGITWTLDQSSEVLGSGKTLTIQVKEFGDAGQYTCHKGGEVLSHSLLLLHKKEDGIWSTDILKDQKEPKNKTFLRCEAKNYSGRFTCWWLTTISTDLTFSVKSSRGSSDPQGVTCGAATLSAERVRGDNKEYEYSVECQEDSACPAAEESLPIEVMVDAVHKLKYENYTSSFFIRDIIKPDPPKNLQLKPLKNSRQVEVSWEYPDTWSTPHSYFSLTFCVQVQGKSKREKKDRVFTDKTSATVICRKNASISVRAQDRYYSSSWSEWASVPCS

T2: human APRIL (R&D Systems, 5860-AP-010/CF) (human, UniProt O75888 105-250, limits assumed)
T2 construct: the B cell assay names 'R&D Systems, 5860-AP'; also called APRIL protein
T2 sequence (looked up): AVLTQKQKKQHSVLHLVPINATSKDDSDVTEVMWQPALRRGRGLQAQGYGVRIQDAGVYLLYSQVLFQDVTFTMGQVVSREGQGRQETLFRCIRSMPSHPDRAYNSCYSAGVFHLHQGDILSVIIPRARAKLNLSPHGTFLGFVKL

B1: Hu29-19T (other)
heavy: STSCREEQGEFYDHLLRDCISCASICGQHPKQCAAFCEGGGGSGGGGSGGGGSQVTLKESGPVLVKPTETLTLTCTVSGFSLTNYAISWVRQPPGKGLEWLGVIWTGGGTNYNSGIKSRLTISKDNSKSQVVLTMTNMDPVDTARYYCVREGDYGSYAGAMDYWGQGTTVTVSSASTKGPSVFPLAPSSKSTSGGTAALGCLVKDYFPEPVTVSWNSGALTSGVHTFPAVLQSSGLYSLSSVVTVPSSSLGTQTYICNVNHKPSNTKVDKKV[here human IgG1 Fc with changes without letters]GGGSSTSCREEQGEFYDHLLRDCISCASICGQHPKQCAAFCESS
light: DIVLTQSPDSLAVSLGERATINCRASESVDYYGISSMHWFQQKPGQPPKLLIYRASNLESGIPARFSGSGSRTDFTLTISSLQAEDVAVYYCQQANKDPYTFGGGTKVEIKRTVAAPSVFIFPPSDEQLKSGTASVVCLLNNFYPREAKVQWKVDNALQSGNSQESVTEQDSKDSTYSLSSTLTLSKADYEKHKVYACEVTHQGLSSPVTKSFNRGEC
notes: anti-IL23 IgG1 with a TACI polypeptide at the N- and the C-terminus of each heavy chain; also called anti-IL23 antibody fusion protein
B2: Hu29-24T (other)
heavy: STSCREEQGEFYDHLLRDCISCASICGQHPKQCAAFCEGGGGSGGGGSGGGGSQVTLKESGPVLVKPTETLTLTCTVSGFSLTQYAISWVRQPPGKGLEWLGVIWTGGGTNYNSGIKSRLTISKDNSKSQVVLTMTNMDPVDTARYYCVREGDYGSYAGAMDYWGQGTTVTVSSASTKGPSVFPLAPSSKSTSGGTAALGCLVKDYFPEPVTVSWNSGALTSGVHTFPAVLQSSGLYSLSSVVTVPSSSLGTQTYICNVNHKPSNTKVDKKV[here human IgG1 Fc with changes without letters]GGGSSTSCREEQGEFYDHLLRDCISCASICGQHPKQCAAFCESS
light: B1 light with E17Q
notes: as for B1

Experiments:
[1] = biological target: T1, human IL-23 (Sino Biological, …); test: competition ELISA, blocks IL-23/IL-23R; IL-23R coated, biotin-IL-23 + sample gradient
Experimental: (§1) The specific procedures are as follows:
(§2) The receptor protein was diluted to 2 μg/mL with a PBS (BasalMedia, B320) buffer at pH 7.4 and added to a 96-well microplate (Corning, 3590) at 100 μL/well. The plate was incubated at 4° C. overnight. After the liquid was discarded, 1 % Casein blocking solution (Thermo, 37528) was added at 200 μL/well for blocking, and the plate was incubated at 37° C. for 2 h. After the blocking was complete, the blocking solution was discarded, and the plate was washed 3 times with a PBST buffer (pH 7.4 PBS containing 0.1 % tween-20) for later use. After the biotin-labeled ligand protein at a fixed concentration was mixed with an antibody or fusion protein diluted in a gradient, the mixture was pre-incubated at 37° C. for 30 min and then added to the blocked microplate. The plate was incubated at 37° C. for 1.5 h. After the incubation was complete, the plate was washed 3 times with PBST. Streptavidin-HRP (Invitrogen, 434323, diluted at 1:4000) was added at 100 μL/well, and the plate was incubated at 37° C. for 1 h. The supernatant was removed. […] The absorbance values at 450 nm were taken using a microplate reader. Curves for the inhibition of binding of the ligands to the receptors were fitted using software, and the IC₅₀ values were calculated.

[2] = biological target: T2, human APRIL (R&D Systems, …); test: competition ELISA, blocks APRIL/BCMA; BCMA coated, biotin-APRIL
Experimental: as §1, §2

[3] = biological target: T3, human BAFF (ACROBiosystems, BAF-H52D4) (human, UniProt Q9Y275 partial chain); test: ELISA, sample coated, BAFF titrated, anti-His-HRP
T3 construct: detected with anti-His-HRP
Experimental: as §1
The test sample was diluted to 2 μg/mL with a PBS (BasalMedia, B320) buffer at pH 7.4 and added to a 96-well microplate (Coming, 3590) at 100 μL/well. The plate was incubated at 4° C. overnight. After the liquid was discarded, 5 % skim milk (BD, 232100) diluted with PBS was added at 300 μL/well for blocking, and the mixture was incubated at 37° C. for 2 h. After the blocking was completed, the blocking solution was discarded, and the plate was washed 3 times with a PBST buffer (pH 7.4, PBS containing 0.1 % tween-20). […] After the incubation, the plate was washed 3 times with PBST. […] After the plate was washed 3 times with PBST, a TMB chromogenic substrate (KPL, 5120-0077) was added at 100 μL/well, and the mixture was incubated at room temperature for 10⁻¹⁵ min, and then 1 M H₂SO₄ was added at 50 μL/well to terminate the reaction. The absorbance values at 450 nm were taken using a microplate reader. The binding curves of antibodies to antigens were fitted using software, and the EC₅₀ values were calculated.

[4] = biological target: T4, human BAFF (Sino Biological, 10056-HNCH) (human, UniProt Q9Y275 partial chain); test: competition ELISA, blocks BAFF/BAFF-R; BAFF-R coated, biotin-BAFF
T4 construct: also called BAFF protein
Experimental: as §1, §2

[5] = biological target: T4, human BAFF (Sino Biological, 10056-HNCH); test: competition ELISA, blocks BAFF/TACI; TACI coated, biotin-BAFF
T4 sequence (Q9Y275 134-285 limits assumed): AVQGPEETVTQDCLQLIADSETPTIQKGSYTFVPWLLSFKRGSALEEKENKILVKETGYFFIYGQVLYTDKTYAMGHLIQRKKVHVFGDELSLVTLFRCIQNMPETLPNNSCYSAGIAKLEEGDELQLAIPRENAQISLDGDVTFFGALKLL
Experimental: as §1, §2

[6] = biological target: T4, human BAFF (Sino Biological, 10056-HNCH); test: competition ELISA, blocks BAFF/BCMA; BCMA coated, biotin-BAFF
Experimental: as §1, §2

[7] = biological target: T2, human APRIL (R&D Systems, …); test: competition ELISA, blocks APRIL/TACI; TACI coated, biotin-APRIL
Experimental: as §1, §2

Row | Binder | IC50 [1] [nM] | IC50 [2] [nM] | EC50 [3] [nM] | IC50 [4] [nM] | IC50 [5] [nM] | IC50 [6] [nM] | IC50 [7] [nM]
1 | B1 | 0.497 | 0.338 | 5.21 | 0.839 | 1.27 | 0.993 | 2.1
2 | B2 | 0.314 | 0.0827 | 5.64 | 1.03 | 1.07 | 0.947 | 1.39
